# PubChem BioAssay AID686978 (National Center for Advancing Translational Sciences (NCATS), 2013)
# “And” between values parts separate entries of the source, which are not always exact repeats. Equal values may be shown once. Screen size: about 420,000 compounds; about 64,000 (15%) were called active. The shares of active, inactive and inconclusive entries below differ from those in the screen. The call rests on the fitted dose curve; in most records, active means well fitted inhibition curve with a large enough effect; inconclusive means small, poorly fitted or top-dose-only effect; inactive means flat fitted curve, though single readings scatter. Potencies beside an inconclusive call are fits to weak or partial responses and may not hold up.
# Assay: qHTS for Inhibitors of human tyrosyl-DNA phosphodiesterase 1 (TDP1): qHTS in cells in absence of CPT; further: nearly all actives have a fitted effect of over 55% in size
# Settings: DT40 Tdp1-/- hTDP1 cells, no CPT, ATP luminescence, 48 h; series mostly up to 46.2 µM
# In short: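 Chicken DT40 Tdp1-/- cells complemented with human TDP1, screened without camptothecin (DMSO vehicle only), 400 cells/well. Compounds pin-transferred, cells incubated at 37 °C for at least 48 hr. Growth read as ATP-dependent luminescence (CellTiter-Glo, 30 min at RT).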
# Potency means the concentration at half of the fitted maximal effect; tags describe the fitted curve by direction and shape.
row,SMILES,Potency
1,CCn1c(NC(C)=O)c(-c2ccccc2Cl)c(=O)c2ccccc21,inactive
2,O=C(c1ccccn1)N(Cc1ccco1)C1(C(=O)NC2CCCC2)CCCCC1,"inconclusive: 0.0073 µM [inhibitor, full curve, poor fit]"
3,Cc1ccc(S(=O)(=O)/N=C(\CN2CCCCC2)N2CCOCC2)cc1,inactive
4,COc1cccc(/C=C/c2nc3c(cnn3-c3ccccc3)c(=O)[nH]2)c1,"inconclusive: 11.6 µM [inhibitor, partial curve, poor fit]"
5,COC(=O)[C@@]12C[C@@H](CC(=O)NCCCN3CCCC3=O)C(=O)N(Cc3cccc4ccccc34)C1=CCC(C)(C)C2,"inconclusive: 20.6 µM [inhibitor, single point]"
6,COc1cc(/C=C2\Oc3cc(O)ccc3C2=O)ccc1O,"inconclusive: 20.6 µM [inhibitor, partial curve]"
7,C[C@H](CO)N1C[C@H](C)[C@@H](CN(C)C(=O)Nc2ccc(C(F)(F)F)cc2)Oc2ccc(NS(=O)(=O)c3cccs3)cc2C1=O,inactive
8,Cc1cccc(-c2nnc(SCc3cc(=O)c4cccc(Cl)c4[nH]3)n2C)c1,active: 16.4 µM
9,CCOc1ccc(-n2c(SCC(=O)N3CCc4ccccc43)nc3c([nH]c4ccccc43)c2=O)cc1,inactive
10,Cc1cc(N/N=C/c2ccccc2[N+](=O)[O-])nc(-n2nc(C)cc2C)n1,active: 0.92 µM
11,CC1CCCN(S(=O)(=O)c2ccc(NC(=O)c3cccc(-n4cnnn4)c3)cc2)C1 (stereo not given),"inconclusive: 16.4 µM [inhibitor, partial curve, poor fit]"
12,CCC(=O)Nc1cc(-c2cccc(C)c2)nn1-c1ccccc1,"inconclusive: 13 µM [inhibitor, partial curve]"
13,COc1cc2c(cc1NC(=O)c1ccc3c(c1)OCO3)oc1ccccc12,"inconclusive: 29.1 µM [inhibitor, single point]"
14,O=C(O)CC(NCc1ccco1)C(=O)Nc1cccc(O)c1 (stereo not given),inactive
15,Cc1cc(NS(=O)(=O)c2ccccc2)c([N+](=O)[O-])cc1C,inactive
16,O=C(Nc1cnccn1)Nc1cccc(Cl)c1Cl,inactive
17,COCCN(CC(=O)Nc1cccc(C)c1C)C(=O)Cn1c(=O)cnc2ccccc21,inactive
18,COc1cc(C2c3cc4c(cc3OC(C)(N3CCCC3)C2C)OCO4)cc(OC)c1OC (stereo not given),active: 1.16 µM
19,CCCN(Cc1cccs1)C(=O)Nc1ccc(OCC)cc1,"inconclusive: 29.1 µM [inhibitor, single point]"
20,CCCCOc1ccc(-c2nnn(CC(=O)c3c[nH]c4ccccc34)n2)cc1,"inconclusive: 14.6 µM [inhibitor, partial curve]"
21,CN(C)c1ncc2ncc(=O)n(Cc3cccs3)c2n1,active: 20.6 µM
22,CC(CCc1ccccc1)NC(=O)C(=O)NCCO (stereo not given),inactive
23,CCc1ccccc1OCC(=O)Nc1cccc(S(=O)(=O)N2CCCC2)c1,active: 16.4 µM
24,COc1ccc(C(=O)NCCSc2ccccc2C)cc1,"inconclusive: 29.1 µM [inhibitor, single point]"
25,COc1ccc(CN(CC(=O)NCc2ccccc2)C(=O)c2csnn2)cc1,"inconclusive: 16.4 µM [inhibitor, partial curve]"

row,SMILES,Potency
1,Cc1cc(=O)[nH]c2nnc(SCC(=O)Nc3ccc(OC(F)(F)F)cc3)n12,inactive
2,O=c1[nH]c(=O)n(Cc2ccccc2)c2nc(-c3ccc(C(F)(F)F)cc3)n(CCO)c12,"inconclusive: 11.6 µM [inhibitor, partial curve]"
3,O=C(CSc1nncs1)NNC(=O)c1ccco1,inactive
4,CCCOC(=O)Nc1ccc(N2CCCCC2)cc1,inactive
5,COc1ccc(NC(=O)N(CCC(C)C)C(C)c2cccs2)c(OC)c1 (stereo not given),active: 18.4 µM
6,Cc1sc(NC(=O)C2CCCCC2C(=O)O)c(C(N)=O)c1-c1ccc(C(C)(C)C)cc1 (stereo not given),inactive
7,COc1cc([N+](=O)[O-])cc(CN2CCCCC2)c1O,inactive
8,O=C(COc1ccccc1)Nc1ccc([N+](=O)[O-])cc1,inactive
9,COc1cc(-c2noc(C)c2C#Cc2ccsc2)cc(OC)c1OC,active: 631 nM and active: 920 nM
10,CCc1nc2ccc(C(=O)Nc3cc(-c4ccccc4)ccc3OC)cn2c1N(CCN(C)C)CC1CC1,active: 14.6 µM
11,CC(C)Cn1c(=O)n(C)c(=O)c2[nH]cnc21,inactive
12,Fc1ccc(-c2nc3c4ccccc4ccn3c2CC2CCCCC2)cc1,active: 20.6 µM
13,CC1CCCC(C)N1C(=O)c1ccc(S(=O)(=O)NCc2ccco2)cc1 (stereo not given),active: 23.1 µM
14,COc1ccc(OC)c(NC(=O)c2cc(-c3ccc(Cl)s3)nc3ccccc23)c1,active: 14.6 µM
15,COc1ccccc1Cc1c(-c2ccco2)nc2ccc(C)cn12,active: 8.2 µM
16,COc1ccc(-n2nc(C(=O)NCC(=O)N3CC(C)CC(C)C3)c3ccccc3c2=O)cc1OC (stereo not given),"inconclusive: 18.4 µM [inhibitor, single point]"
17,CC(/C=C/c1ccc(O)cc1)=N/O,active: 20.6 µM
18,CC1CCc2[nH]c3ccc(C(=O)Nc4ccc(C(=O)N(C)C)cc4)cc3c2C1 (stereo not given),"inconclusive: 8.2 µM [inhibitor, partial curve]"
19,Nc1nc(SCC(=O)Nc2ccc3c(c2)OCO3)n[nH]1,inactive
20,CNc1cncc(-c2cccc(C(C)=O)c2)n1,"inconclusive: 6.51 µM [inhibitor, single point]"
21,CCN1C(=O)CSC1=NC1C2CC3CC(C2)CC1C3 (stereo not given),"inconclusive: 23.1 µM [inhibitor, single point]"
22,Cc1nonc1C1CCCN1Cc1nc(-c2ccc(F)cc2F)oc1C (stereo not given),"inconclusive: 29.1 µM [inhibitor, single point]"
23,COn1c(-c2ccccc2)nc2ccc(Cl)cc21,"inconclusive: 20.6 µM [inhibitor, single point]"
24,O=C1CSC(=S)N1CC1CCCO1 (stereo not given),"inconclusive: 35.5 µM [inhibitor, single point]"
25,C[C@H](NC(=O)c1nc[nH]c1C(=O)N[C@@H](C)C(=O)OC(C)(C)C)C(=O)OC(C)(C)C,"inconclusive: 10.3 µM [inhibitor, partial curve]"

row,SMILES,Potency
1,O=C1C(Cc2cccc([N+](=O)[O-])c2)S/C(=N/N=C/c2ccco2)N1c1ccccc1 (stereo not given),"inconclusive: 23.1 µM [inhibitor, single point]"
2,COc1cccc(/C=C/C(=O)OCC(=O)Nc2nnc(-c3ccccc3)o2)c1OC,"inconclusive: 11.6 µM [inhibitor, partial curve]"
3,O=C(NC1CCCc2ccccc21)c1n[nH]c(=O)c2ccccc12 (stereo not given),active: 6.51 µM
4,COc1ccc(Oc2ccccc2C=O)cc1,active: 5.8 µM
5,CCCCCn1nc(C(=O)N(CC(C)C)c2c(N)n(CCCC)c(=O)[nH]c2=O)c2ccccc2c1=O,inactive
6,CC(C)(C)OC(=O)C[C@@H]1C/C=C\C[C@@H](CC(=O)NCCO)C(=O)N2CCC[C@H]2COC1=O,inactive
7,O=C(CSc1nccc(=O)[nH]1)N1CCN(c2ccccc2)CC1,"inconclusive: 23.1 µM [inhibitor, partial curve]"
8,CC1(C(=O)NS(=O)(=O)Cc2cccc(Cl)c2)CCN1C(=O)C/C=C/c1ccccc1 (stereo not given),inactive
9,CCCCOc1cc(CC2CNC(=O)N2)ccc1OC (stereo not given),"inactive and inconclusive: 39.8 µM [inhibitor, single point]"
10,O=C(Nc1ccccc1F)Nc1ccccc1N1CCCCC1,inactive
11,CN1CCc2c(sc3c2c(=O)n(-c2ccccc2)c2nncn32)C1,"inconclusive: 23.1 µM [inhibitor, partial curve, poor fit]"
12,COCCNc1ncnc2c1c(-c1ccccc1)cn2-c1ccc(C)c(Cl)c1,"inconclusive: 25.9 µM [inhibitor, single point]"
13,Cc1ccc(-c2nnc(C)c(N3CCOCC3)n2)cc1,"inconclusive: 25.9 µM [inhibitor, single point]"
14,O=C(NCc1ccco1)c1ccc2c(c1)N(Cc1ccccc1)C(=O)c1ccccc1S2(=O)=O,"inconclusive: 29.1 µM [inhibitor, single point]"
15,COc1ccc(NC(=O)CSc2nc3c([nH]c4ccccc43)c(=O)n2-c2ccccc2)c(OC)c1,inactive
16,CC(C(=O)N=Nc1c(O)[nH]c2ccccc12)n1cnc2ccccc2c1=O (stereo not given),"inconclusive: 9.2 µM [inhibitor, partial curve, poor fit]"
17,COc1ccccc1C(=O)CC(=O)C(=O)Nc1cccc([N+](=O)[O-])c1C,active: 11.6 µM
18,CC1(c2ccc3noc(-c4ccc(Cl)cc4)c3c2)OCCO1,"inconclusive: 16.4 µM [inhibitor, partial curve]"
19,O=C(NCCN1CCCCC1)c1cc(OCC(F)(F)F)ccc1OCC(F)(F)F,inactive
20,O=C(NCC(=O)N(c1ccccc1)C(C(=O)NC1CCCCC1)c1cccnc1)c1cccs1 (stereo not given),inactive
21,Cc1cccc(CNc2ccnc(-c3ccccc3CN(C)C)n2)c1,active: 7.31 µM
22,O=C1C(=O)N2C(=C1C(=O)N1CCCCCC1)c1ccccc1CC21CCCC1,"inconclusive: 29.1 µM [inhibitor, single point]"
23,Cc1sc2nc(SCc3nc(-c4cccs4)no3)n(-c3ccccc3)c(=O)c2c1C,"inconclusive: 29.1 µM [inhibitor, single point]"
24,CN1CCN(C(c2cccc(Cl)c2)c2ccccc2Cl)CC1 (stereo not given),"inconclusive: 29.1 µM [inhibitor, single point]"
25,CCOc1ccc(NC(=O)Cn2c3ncccc3c(=O)n2-c2ccc(CC)cc2)cc1,"inconclusive: 20.6 µM [inhibitor, single point]"
